Assay results reported in PMC6919601, “Identification of Plasmodium dipeptidyl aminopeptidase allosteric inhibitors by high throughput screening” (PLoS ONE, 2019).
Values joined by “and” are separate entries in the source; they are usually repeats but may differ in a detail not shown here. Equal values may be shown once. Out of some 110,000 compounds screened, about 230 (0.21%) showed an effect of 50% or more. The list shows a part of the results.

biological target: DPAP1 (Plasmodium falciparum, UniProt Q8IIJ9); test: primary screen, percent inhibition; read by cleavage of a fluorogenic dipeptide substrate; higher = more effect of the substance; set-up: species or system P. falciparum D10 trophozoite lysates; single well
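Note: 30 min substrate incubation versus DMSO and 10 µM JCP410 controls.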

Chain of DPAP1 (Q8IIJ9 whole entry, looked up): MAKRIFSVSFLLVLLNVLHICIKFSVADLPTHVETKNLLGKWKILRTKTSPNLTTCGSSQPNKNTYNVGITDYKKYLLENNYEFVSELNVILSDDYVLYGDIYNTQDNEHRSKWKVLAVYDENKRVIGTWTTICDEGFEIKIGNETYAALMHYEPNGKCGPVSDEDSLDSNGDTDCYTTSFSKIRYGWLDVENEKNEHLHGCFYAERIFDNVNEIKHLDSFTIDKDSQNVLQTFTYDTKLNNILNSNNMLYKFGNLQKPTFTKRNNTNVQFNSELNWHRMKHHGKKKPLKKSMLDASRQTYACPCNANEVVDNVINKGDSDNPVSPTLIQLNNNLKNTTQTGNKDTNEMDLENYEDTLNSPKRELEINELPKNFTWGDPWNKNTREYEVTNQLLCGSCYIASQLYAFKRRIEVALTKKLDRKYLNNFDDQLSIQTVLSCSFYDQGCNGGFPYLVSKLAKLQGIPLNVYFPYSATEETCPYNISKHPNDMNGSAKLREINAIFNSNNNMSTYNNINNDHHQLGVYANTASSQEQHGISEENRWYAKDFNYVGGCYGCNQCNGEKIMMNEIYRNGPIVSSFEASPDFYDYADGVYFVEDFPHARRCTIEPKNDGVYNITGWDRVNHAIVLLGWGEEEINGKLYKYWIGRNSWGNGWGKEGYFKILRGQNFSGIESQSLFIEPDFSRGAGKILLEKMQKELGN

Row | SMILES | % Inhibition @ 10 uM
1 | Sc1ncnc2c1[nH]c1ccccc12 | 4.7%
2 | c1sc2c(c1CN1CCN(C3CCCCC3)CC1)CCCC2 | 8.3%
3 | O=C(NCc1ccc2c(c1)OCO2)C(Cc1ccccc1)n1cccc1 (stereo not drawn) | -7.99%
4 | CC1(C)CC2=Nc3nc(O)nc(O)c3C(c3ccc(Cl)cc3Cl)C2=C(O)C1 (stereo not drawn) | -5.96%
5 | COC(=O)C1=C(C)N(C)C(C)=C(C(=O)OC)C1c1ccc(-c2ccccc2)cc1 | 1.26%
6 | COc1ccc(/C=C2\SC(=S)N(C3CCS(=O)(=O)C3)C2=O)cc1 (stereo not drawn) | 1.83%
7 | CCOC(=O)C1=C(C)N(c2ccc(OC)cc2)C(=O)/C1=C\c1ccc(Cl)cc1 | -14.2%
8 | COc1ccc(NC(=O)CSCc2c(Cl)cccc2Cl)c(OC)c1 | 6.24%
9 | COC(C(=O)N1CCCCCC1)(c1ccccc1)c1ccccc1 | 5.37%
10 | CCOc1ccc(NS(=O)(=O)c2ccc(NC(=O)CC)cc2)cc1 | -3.06%
11 | Oc1nc2ccccc2n1C1CCNCC1 | 5.54%
12 | O=C(CN1C(=O)c2ccccc2S1(=O)=O)Nc1ccccc1C(=O)NC1CCCCC1 | -3.43%
13 | COc1cc2c(c(OC)c1OC)COC2=O | 0.962%
14 | O=C(c1ccccc1)N1CCN(C(=O)c2ccco2)CC1 | 1.7%
15 | C=CCC(c1ccccc1F)N(CCN1CCOCC1)C(=O)Nc1cccc(Cl)c1 (stereo not drawn) | -4.12%
16 | CC(C)C[C@H](NC(=O)c1cccc(-c2cccc(S(C)(=O)=O)c2)c1)C(=O)NCC#N | -0.207%
17 | Cc1cc(=O)n2ccc(CN3CCOCC3)c(O)c2n1 | 2.65% and -4.21%
18 | COc1ccc(C(=O)Nc2ccc(C(C)C)cc2)c(OC)c1 | -4.15%
19 | COc1ccc(OC)c(S(=O)(=O)c2c(C)cc(C)cc2C)c1 | -4.43%
20 | O=C(CCC(=O)N1CC=C(c2c[nH]c3ccccc23)CC1)NCCc1ccc(Cl)cc1 | 4.92%
21 | O=C(O)c1ccc2c(c1)C(=O)N(c1ccc(Cc3ccncc3)cc1)C2=O | -0.185%
22 | Cc1cc(C)n2nc(C(=O)NCc3ccccc3)cc2n1 | 0.215%
23 | Cc1c(Cl)c(C(F)(F)F)nn1CC(=O)N1CCOCC1 | 0.51%
24 | CC(C)CC(=O)Nc1nn2c(-c3ccco3)nnc2s1 | -6.36%
25 | CCOC(=O)c1cnc2c(-c3ccccc3)cnn2c1N | -5.53%
26 | CN1/C(=C/C(=O)c2ccco2)C(C)(C)c2ccccc21 | 1.87%

Row | SMILES | % Inhibition @ 10 uM
27 | O=C(Nc1ccccc1)Nc1ccc2c(c1)C(=O)c1ccccc1-2 | 2.58%
28 | c1ccc2c(c1)CCC(NCCN1CCCCC1)C2 (stereo not drawn) | -1.5%
29 | CC(=O)c1cccc(-n2cccc2)c1 | 1.2%
30 | COc1ccc(-c2nccnn2)cc1 | 2.21%
31 | O=C(Cc1noc2ccccc12)NCc1cccnc1 | -3.49%
32 | O=C(NCc1ccccc1)c1cc(-c2cccs2)on1 | -2.55%
33 | CCOC(=O)N1CCN(CC(O)COc2ccc(C)cc2C(C)(C)C)CC1 (stereo not drawn) | 0.291%
34 | CCn1c(=O)c(C(=O)Nc2ccc(F)cc2)c(O)c2ccccc21 | 0.909%
35 | Cc1ccc(CS(=O)(=O)Cc2ccc(C(=O)NC(C)c3ccccc3)o2)cc1 (stereo not drawn) | 2.18%
36 | Cc1ccc(N2C(=O)C(Cl)=C(N3CCOCC3)C2=O)c(C)c1 | -1.64%
37 | O=C(Nc1ccc(F)cc1F)c1ccc(Cn2cc(Br)cn2)cc1 | 0.907% and 4.08%
38 | CC1CCc2c(sc3ncnc(Cl)c23)C1 (stereo not drawn) | -4.93%
39 | CC(Nc1nc(-c2ccccc2)nc2ccccc12)c1ccccc1 (stereo not drawn) | 5.37%
40 | CCCS(=O)(=O)c1ncc(Cl)c(C(=O)Nc2nnc(SCc3ccccc3C)s2)n1 | 3.77%
41 | COc1cc(CNc2ccc(N3CCN(C(C)=O)CC3)cc2)ccc1OCc1ccccc1 | 0.727%
42 | CCNC(=O)c1cc2c(=O)n3cc(C)ccc3nc2n(CC)c1=N | 1.97%
43 | COc1ccc(C2C(C#N)=C(N)Oc3[nH]nc(C)c32)cc1OCc1ccc(Cl)cc1 (stereo not drawn) | -2.64%
44 | CCCOc1cc(/C=C(/C#N)C(N)=S)ccc1OC | 0.777%
45 | Cc1ccc(S(=O)(=O)N(CC(=O)Nc2ccc3c(c2)OCO3)c2ccccc2)cc1 | 5.85%
46 | COCC(=O)Nc1nc2nc(C)c(Cc3ccccc3)c(O)n2n1 | -3.08%
47 | O=C(CCN1C(=O)c2ccccc2C1=O)N1CCN(Cc2ccc(Cl)cc2Cl)CC1 | -5.28%
48 | O=C(Nc1cccc(NC(=O)c2ccco2)c1)c1ccco1 | 1.7%
49 | COCCO/C(O)=C1/C(C)=NC2=C(C(=O)CC(C)(C)C2)C1c1ccc(Br)cc1 (stereo not drawn) | -3.14%
50 | O=C(c1cc(-c2ccc(Br)cc2)nc2ccccc12)N1CCOCC1 | -0.251%
51 | COc1ccc(S(=O)(=O)N2CCN(C(=O)c3ccc(OC)c(OC)c3)CC2)cc1 | 2.94%
52 | Cn1nc(CC(=O)NC2CCCCCC2)c2ccccc2c1=O | 2.8%

Row | SMILES | % Inhibition @ 10 uM
53 | O=C(CCNc1c(N2CCCC2)c(=O)c1=O)NCCc1ccc(Cl)cc1 | -3.51%
54 | Cc1ccc(NC(=O)c2c(C)nc3ccccn23)cc1 | -1.75%
55 | CCS(=O)(=O)N1CCC(C(=O)N2CCN(Cc3ccccc3)CC2)CC1 | 3.79%
56 | CCn1cc(CCC(=O)NCCc2ccccc2)c2ccccc21 | 3.54%
57 | COc1cc(C(=O)Nc2c(C(=O)c3ccccc3)oc3ccccc23)cc(OC)c1OC | -1.11%
58 | CC(=O)C1=C(O)C(=O)N(c2ccc(O)cc2)C1c1ccc(F)cc1 (stereo not drawn) | 0.993%
59 | CCOC(=O)N1CCN(CC2CCCCC2)CC1 | 1.08%
60 | Cc1ccc(Cn2nnc3c(=O)n(CC(=O)N4CCOCC4)cnc32)cc1 | -0.644%
61 | CCOC(=O)c1sc(NC(=O)C2COc3ccccc3O2)c(C(=O)OCC)c1C (stereo not drawn) | 2.92%
62 | CCOc1ccccc1C(=O)Nc1sc(C)c(C)c1C#N | -0.736%
63 | CN1C(=O)C2(C(C#N)=C(N)OC3=C2C(=O)CC(C)(C)C3)c2cc(Br)ccc21 (stereo not drawn) | -0.864%
64 | C=CCNc1oc(/C=C/c2cc(OC)c(OC)c(OC)c2)nc1C#N | -0.808%
65 | CN(C)CCNc1ncnc2[nH]cnc12 | -1.52%
66 | N#Cc1ccc(-c2ccc(OCC(=O)Nc3ccc(Br)cn3)cc2)cc1 | -1.88%
67 | CCOc1ccc2oc(=O)cc(CN3CCN(Cc4ccccc4)CC3)c2c1 | -3.49%
68 | Cc1c(Cl)cccc1N1C(=O)C2C3C=CC(O3)C2C1=O (stereo not drawn) | 4.98%
69 | CCc1ccc(-c2cc3c(=O)n(CC(=O)N4CCC5(CC4)OCCO5)nc(C)n3n2)cc1 | -2.85%
70 | Cc1onc(-c2ccccc2)c1C(=O)NCc1ccc(F)cc1 | -2.6%
71 | CCc1ccccc1NC(=O)c1ccc(Cl)cc1 | -3.65%
72 | COc1ccc(-c2cc(C(=O)Nc3ccc4c(c3)OCO4)c3ccccc3n2)cc1OC | 2.82%
73 | Cc1cc(C)c2c(N)c(C(=O)O)sc2n1 | 13.2%
74 | COCCNC(=S)N1CCc2cc(OC)c(OC)cc2C1COc1ccc(F)cc1 (stereo not drawn) | -0.363%
75 | CCCN(CCC)C(=O)c1c(C)nn(-c2ccc(C)cc2)c1-n1cccc1 | -7.05%
76 | O=C(NCCC1=CCCCC1)C1CCN(c2cnccn2)CC1 | -0.946%
77 | CCN(CC)C(=O)C1CCCN(CCc2ccccc2)C1 (stereo not drawn) | -3.15%
78 | CCC(Cc1ccccc1)NC(=O)Cn1ncc2c3ccccc3n(C)c2c1=O (stereo not drawn) | -0.23%

Row | SMILES | % Inhibition @ 10 uM
79 | Cc1cc(=O)n2c(n1)CC(c1ccccc1)=N2 | 3.83%
80 | CCOC(=O)N1CCN(C(=O)CSc2nnc(-c3ccccc3)o2)CC1 | 0.738%
81 | N#CC1=C(N)Oc2c(O)nc(O)nc2C1c1ccc([N+](=O)[O-])cc1 (stereo not drawn) | 1.7%
82 | CC(C)C1=NN2C(=N)/C(=C/c3cccs3)C(=O)N=C2S1 | -2.87%
83 | COc1ccc(Cl)cc1NC(=O)CN(C1CCCCC1)S(C)(=O)=O | -1.51%
84 | N#CC1=C(N)Oc2[nH]nc(-c3ccc(Br)cc3)c2C1c1cccs1 (stereo not drawn) | 5.67%
85 | CC1=C(C(=O)Nc2cccnc2)C(c2cccs2)n2nc(SCc3ccccc3)nc2N1 (stereo not drawn) | -1.2%
86 | Cc1ccc(S(=O)(=O)NC2(C(F)(F)F)NC(=O)N(C)C2=O)cc1 (stereo not drawn) | 0.221%
87 | O=c1ccc2ccc3occc3c2o1 | -0.502%
88 | CCOc1ccc(C(=O)Nc2ccc(OC)cc2OC)cc1 | 4.53%
89 | COCc1cc(C)nc2sc(C(=O)N(Cc3ccccc3)Cc3ccccc3)c(N)c12 | 2.7%
90 | CCOc1cc(/C=N/N=C(\N)c2nonc2N)cc(Br)c1O | 0.503%
91 | COc1ccc(-n2c(C)cc(/C=C3\C(=N)N4N=C(S(C)(=O)=O)SC4=NC3=O)c2C)cc1 | -1.54%
92 | O=C(Cn1ncn2nc(-c3ccco3)cc2c1=O)NCc1ccc2c(c1)OCO2 | 0.623%
93 | COc1ccc(CNC(=O)c2c(OC)cccc2OC)cc1 | 1.96%
94 | CC(C)Cc1ccc(S(=O)(=O)N2CCc3ccccc3C2)cc1 | 0.457%
95 | Cc1cc(C)c2nc(N3CCCC(C(=O)NCc4ccco4)C3)sc2c1 (stereo not drawn) | 3.4%
96 | CCCCN(C)C(=O)c1cc(-c2ccc(OC)cc2)[nH]n1 | 2.28%
97 | O=C1C=CC(=NOC(=O)c2ccc(Cl)cc2)C=C1 | -1.6%
98 | Cc1cccc(C2=N/C(=C\c3ccccc3C(F)(F)F)C(=O)O2)c1 | 6.56%
99 | Cc1ccc(C2CC(=O)NC(=O)S2)cc1 (stereo not drawn) | 8.63%
100 | O=C(O)/C=C/c1ccc(-c2cccc(C(F)(F)F)c2)o1 | 3.13%
101 | CCCOc1ccccc1C1NC(=O)NC(C)=C1C(=O)OCCc1ccccc1 (stereo not drawn) | 4.1%
102 | O=C(Cn1ncc2c3ccccc3n(Cc3ccccc3)c2c1=O)N1CCN(Cc2ccccc2)CC1 | 4.95%
